One test concerns HSkMC. Briefly: cytotoxicity call (relative viability < 0.9). To be noted: 10 µM.
In another test the test system is HepG2. Briefly: cytotoxicity call (relative viability < 0.9). The note with it: 10 µM.
Another test has as its system S. aureus RN4220. Briefly: growth inhibition call (relative growth <= 0.2). The note with it: 50 µM.

This is one part of the list.

As to `Cc1ccc(S(=O)(=O)N(C)C[C@@H]2OCCCC[C@@H](C)Oc3ccc(NC(=O)C4CCCCC4)cc3C(=O)N([C@@H](C)CO)C[C@@H]2C)cc1`, the cytotoxicity call with HSkMC and with HepG2 was “inactive” each time. In the test on S. aureus RN4220, the growth inhibition call is “inactive”.
For `CN(C)CCCC1(c2ccc(F)cc2)OCc2cc(C#N)ccc21.O=C(O)C(=O)O` (stereo not drawn), the cytotoxicity call in the test on HSkMC and in the test with HepG2 was “inactive” in each case. In the test with S. aureus RN4220, the growth inhibition call is “inactive”.
Regarding `C[C@@H]1CN([C@@H](C)CO)S(=O)(=O)c2ccc(/C=C/c3ccccc3)cc2O[C@H]1CN(C)C(=O)Nc1cc(F)ccc1F`, the cytotoxicity call in the test with HSkMC and with HepG2 was “inactive” each time. In addition, in the test with S. aureus RN4220, the growth inhibition call was “inactive”.
As to `C[C@@H]1CN([C@H](C)CO)C(=O)c2cccc(NC(=O)C3CCCCC3)c2O[C@H]1CN(C)S(=O)(=O)c1cn(C)cn1`, the cytotoxicity call in the test with HSkMC and in the test with HepG2 was “inactive” throughout. Besides, the growth inhibition call in the test with S. aureus RN4220 is “inactive”.
On to `NCCCCCNC(=O)[C@@H]1C[C@@H]2C(=O)N[C@@H](CCCCN)C(=O)N2[C@@H]1c1cccc(OCCO)c1`, for which the cytotoxicity call in the test with HSkMC and in the test on HepG2 was “inactive” throughout. In addition, the growth inhibition call in the test on S. aureus RN4220 was “inactive”.
For the compound `C[C@H](CO)N1C[C@H](C)[C@H](CN(C)C(=O)c2cccc(F)c2)Oc2cc(-c3cncnc3)ccc2S1(=O)=O`, the cytotoxicity call in the test with HSkMC and in the test on HepG2 was “inactive” each time. In addition, the growth inhibition call with S. aureus RN4220 is “inactive”.
With `COc1ccc(-c2cccc(-c3nc(C(=O)NCC(F)(F)F)cc4c3[C@@H](CCO)N([S@](=O)C(C)(C)C)C4)c2)cc1`, the cytotoxicity call in the test with HSkMC and in the test on HepG2 was “inactive” in each case. The growth inhibition call in the test with S. aureus RN4220 is “inactive”.
As for `COCC(=O)Nc1ccc2c(c1)OC[C@@H](C)N(C(=O)Nc1ccccc1F)C[C@@H](C)[C@H](OC)CN(C)C2=O`, the cytotoxicity call in the test with HSkMC and in the test on HepG2 was “inactive” each time. The growth inhibition call in the test on S. aureus RN4220 was “inactive”.
`Cc1nnc2sc(=S)[nH]n2c1=O`: the cytotoxicity call in the test on HSkMC and in the test on HepG2 was “inactive” throughout. The growth inhibition call in the test with S. aureus RN4220 was “inactive”.
Consider `C[C@@H]1CN([C@@H](C)CO)C(=O)c2cc(N(C)C)ccc2O[C@@H](C)CCCCO[C@@H]1CN(C)S(C)(=O)=O`, for which the cytotoxicity call with HSkMC and in the test with HepG2 was “inactive” in each case. In addition, in the test with S. aureus RN4220, the growth inhibition call was “inactive”.
Regarding `C=CC[C@@H](CC(=O)N(CCO)Cc1ccccc1)C(=O)N[C@H](COC(=O)[C@H](CC=C)CC(=O)OC(C)(C)C)Cc1c[nH]c2ccccc12`, the cytotoxicity call with HSkMC and in the test with HepG2 was “inactive” each time. Also, in the test on S. aureus RN4220, the growth inhibition call was “inactive”.
Take `COc1ccc(cc1)CN1C[C@]2(CCN(CC2)S(=O)(=O)c2cn(cn2)C)c2c([nH]c3cc(ccc23)OC)[C@H]1CO`: the cytotoxicity call in the test on HSkMC and in the test with HepG2 was “inactive” each time. The growth inhibition call in the test on S. aureus RN4220 was “inactive”.
As to `COc1ccc(NC(=O)N(C)C[C@H]2OCCCC[C@@H](C)Oc3ccc(NS(=O)(=O)c4cccs4)cc3C(=O)N([C@H](C)CO)C[C@@H]2C)cc1`, the cytotoxicity call in the test on HSkMC and with HepG2 was “inactive” each time. The growth inhibition call in the test with S. aureus RN4220 is “inactive”.
On to `CC(C)[C@@H](N)c1nccn1C`, for which the cytotoxicity call in the test with HSkMC and with HepG2 was “inactive” throughout. The growth inhibition call in the test with S. aureus RN4220 was “inactive”.
`C[C@@H]1CN([C@@H](C)CO)C(=O)c2cc(NC(=O)CCCN(C)C)ccc2O[C@@H](C)CCCCO[C@@H]1CN(C)CC1CCCCC1`: the cytotoxicity call in the test on HSkMC and in the test with HepG2 was “inactive” throughout. Moreover, in the test on S. aureus RN4220, the growth inhibition call was “inactive”.
Take `C[C@@H]1CN([C@H](C)CO)C(=O)c2cccc(NC(=O)C3CCOCC3)c2O[C@H]1CN(C)Cc1ccncc1`: the cytotoxicity call in the test on HSkMC and with HepG2 was “inactive” in each case. In addition, the growth inhibition call with S. aureus RN4220 is “inactive”.
Regarding `CC(C)C(=O)NC1=N[C@H]2[C@@H](N=CN2[C@H]2C[C@@H](O)[C@@H](CO)O2)C(=O)N1`, the cytotoxicity call in the test with HSkMC and with HepG2 was “inactive” each time. In addition, the growth inhibition call in the test on S. aureus RN4220 was “inactive”.
Consider `NCC[C@@H]1CC[C@@H](NC(=O)Cc2ccncc2)[C@H](CO)O1`, for which the cytotoxicity call with HSkMC and in the test on HepG2 was “inactive” each time. For the same compound, in the test on S. aureus RN4220, the growth inhibition call is “inactive”.
As for `Cc1ccc(S(=O)(=O)N(C)C[C@@H]2OCCCC[C@@H](C)Oc3ccc(NC(=O)c4ccccc4)cc3C(=O)N([C@H](C)CO)C[C@@H]2C)cc1`, the cytotoxicity call in the test on HSkMC and in the test on HepG2 was “inactive” each time. In addition, in the test with S. aureus RN4220, the growth inhibition call was “inactive”.
On to `C[C@@H]1CCCCO[C@H](CN(C)C(=O)c2ccccc2)[C@@H](C)CN([C@@H](C)CO)C(=O)c2cc(NC(=O)Nc3ccccc3)ccc2O1`, for which the cytotoxicity call with HSkMC and with HepG2 was “inactive” throughout. For the same compound, the growth inhibition call in the test with S. aureus RN4220 is “inactive”.
In the case of `CN(C)C(=O)c1ccc(-c2cccc(-c3nc(C(=O)NCc4ccccc4)cc4c3[C@@H](CCO)N([S@](=O)C(C)(C)C)C4)c2)cc1`, the cytotoxicity call with HSkMC and in the test with HepG2 was “inactive” throughout. Further, in the test on S. aureus RN4220, the growth inhibition call is “inactive”.
In the case of `C[C@@H]1CCCCO[C@@H](CN(C)C(=O)CCC(F)(F)F)[C@H](C)CN([C@@H](C)CO)C(=O)c2cc(NC(=O)C3CCCCC3)ccc2O1`, the cytotoxicity call in the test with HSkMC and with HepG2 was “inactive” each time. Further, in the test with S. aureus RN4220, the growth inhibition call was “inactive”.
With `CC(C)NC(=O)N(C)C[C@@H]1Oc2ccc(NC(=O)NC3CCCCC3)cc2CC(=O)N([C@H](C)CO)C[C@H]1C`, the cytotoxicity call in the test on HSkMC and with HepG2 was “inactive” throughout. Further, the growth inhibition call in the test on S. aureus RN4220 was “inactive”.
As to `CNCCC(Oc1cccc2ccccc12)c1cccs1.Cl` (stereo not drawn), the cytotoxicity call in the test with HSkMC is “inactive”. In the test with HepG2, the cytotoxicity call is “active”. The growth inhibition call in the test with S. aureus RN4220 was “inactive”.
`Cc1ccc(-c2ccc3c(c2)O[C@@H](CN(C)C(=O)NC(C)C)[C@@H](C)CN([C@H](C)CO)S3(=O)=O)cc1`: the cytotoxicity call in the test on HSkMC (human skeletal muscle cells) and in the test on HepG2 was “inactive” in each case. Moreover, in the test with S. aureus RN4220, the growth inhibition call was “inactive”.
Turning to `COC(=O)c1cc(=O)n2ccccc2c1C#N`, the cytotoxicity call in the test with HSkMC and in the test on HepG2 was “inactive” throughout. In addition, the growth inhibition call with S. aureus RN4220 is “inactive”.

The values above are taken from the antibiotic and cytotoxicity screens of Wong et al. (2023).
